# Assay results published in article PMC4336329 (PLoS ONE, 2015).
# Among all 310,000 compounds or so, about 14,000 (4.5%) showed an effect of 50% or more. The effect is printed as a negative number. Some of the results follow.
# Target: human ether-à-go-go-related gene (hERG) potassium channel (human, UniProt Q12809)
# Experiment: primary screen, population patch clamp on CHO cells stably expressing hERG
# 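Note: peak tail current of the secondary pulse compared with the same well before compound.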
# Chain of human ether-à-go-go-related gene (hERG) potassium channel (Q12809 whole entry, looked up): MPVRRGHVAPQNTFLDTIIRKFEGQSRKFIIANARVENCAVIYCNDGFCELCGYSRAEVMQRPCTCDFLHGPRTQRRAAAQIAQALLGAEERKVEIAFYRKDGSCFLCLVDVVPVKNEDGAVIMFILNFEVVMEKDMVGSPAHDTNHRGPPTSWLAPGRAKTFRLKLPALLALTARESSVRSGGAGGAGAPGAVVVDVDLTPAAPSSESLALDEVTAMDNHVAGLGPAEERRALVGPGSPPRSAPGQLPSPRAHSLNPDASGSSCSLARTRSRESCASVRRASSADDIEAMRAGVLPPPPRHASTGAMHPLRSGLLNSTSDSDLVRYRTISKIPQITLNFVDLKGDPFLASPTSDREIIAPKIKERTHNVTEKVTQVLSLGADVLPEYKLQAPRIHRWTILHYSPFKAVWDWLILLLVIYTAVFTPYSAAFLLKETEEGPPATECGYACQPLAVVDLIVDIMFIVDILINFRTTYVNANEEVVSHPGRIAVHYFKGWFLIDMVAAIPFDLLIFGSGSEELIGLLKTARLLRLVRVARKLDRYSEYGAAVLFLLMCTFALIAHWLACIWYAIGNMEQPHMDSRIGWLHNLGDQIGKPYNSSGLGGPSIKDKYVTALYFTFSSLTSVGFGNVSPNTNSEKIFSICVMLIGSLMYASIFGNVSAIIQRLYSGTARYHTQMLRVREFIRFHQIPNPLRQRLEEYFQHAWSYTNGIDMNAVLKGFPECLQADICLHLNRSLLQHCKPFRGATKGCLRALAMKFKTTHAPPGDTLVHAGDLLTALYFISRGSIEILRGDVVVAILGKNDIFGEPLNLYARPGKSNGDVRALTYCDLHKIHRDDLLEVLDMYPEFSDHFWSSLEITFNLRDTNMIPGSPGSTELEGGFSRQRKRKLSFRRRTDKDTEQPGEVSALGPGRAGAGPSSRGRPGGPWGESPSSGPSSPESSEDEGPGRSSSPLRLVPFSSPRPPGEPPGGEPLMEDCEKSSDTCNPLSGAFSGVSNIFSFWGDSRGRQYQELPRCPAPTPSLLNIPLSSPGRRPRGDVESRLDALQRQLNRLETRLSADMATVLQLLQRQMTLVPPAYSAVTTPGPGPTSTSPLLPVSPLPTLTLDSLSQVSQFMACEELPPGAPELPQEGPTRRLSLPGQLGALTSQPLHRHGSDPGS
row,SMILES,"hERG current change (%, negative = inhibition) at 10uM [%]"
1,C/C=C/c1ccc(OCCOc2ccc(C=O)cc2OC)c(OC)c1,16.5
2,COc1ccc(-n2nnc3c(SCC(=O)Nc4ccc5c(c4)OCCO5)ncnc32)cc1,0.643
3,OC1(c2cccs2)CN(c2ccc(Cl)cc2)C2=[N+]1CCCS2.[Br-] (stereo not shown),-73.6
4,N#C/C(=C/c1ccc(Br)o1)C(N)=O,-0.529
5,Cc1c(NC(=O)CN2C(=O)c3ccc([N+](=O)[O-])cc3C2=O)c(=O)n(-c2ccccc2)n1C,8.89
6,O=C(O)CCCCCn1c(O)c(C=C2N=c3ccccc3=N2)sc1=S,22.3
7,Cc1ccc(-n2c(SCC(=O)O)nc3sc4c(c3c2=O)CCCC4)cc1,15.1
8,O=C(CSc1nc2[nH]ncc2c(=O)[nH]1)Nc1ccccc1C(F)(F)F,3.48
9,Cc1cccc(C)c1OCC(=O)N(Cc1ccc(Cl)cc1)C1CCS(=O)(=O)C1 (stereo not shown),-36.1
10,Cc1ccc(Oc2cc([N+](=O)[O-])cc3c2C(=O)Nc2ccccc2O3)cc1,2.8
11,CCOc1ccc(NC(=O)c2ccc(N3CC4CC(C3)c3cccc(=O)n3C4)c(NC(=O)c3ccncc3)c2)cc1 (stereo not shown),1.19
12,CC(=O)Nc1ccc(S(=O)(=O)NC(C)(C#N)C2CC2)cc1 (stereo not shown),11
13,COc1cccc(CNC(=O)C(=O)NCC2CCCN2S(=O)(=O)c2cc(C)ccc2C)c1 (stereo not shown),-34.4
14,O=C(CN1CCOc2ccccc21)N1CCCC1,12.5
15,CC1CCN(C(=O)CSc2ccc(-c3ccccc3)nn2)CC1,-11.8
16,Cc1ccc(NC(=O)CN(C)CC(=O)Nc2ccc(N3CCOCC3)cc2)cc1F.O=C(O)C(=O)O,-15.3
17,COc1ccc(C(CNC(=O)c2ccc3c(c2)CCC3)N(C)C)cc1 (stereo not shown),-5.08
18,CCCCNC(=O)CN1CCN(Cc2ccc3cc(OC)ccc3c2)CC1.O=C(O)C(=O)O,-69
19,O=C(NCc1cccs1)c1cnc2sccn2c1=O,-14
20,Cc1cc(C(=O)NCc2ccc(S(N)(=O)=O)cc2)cs1,-14
21,Cc1ccc(NC(=O)CSc2nnc(Cn3cnc4ccccc43)o2)c(C)c1,1.12
22,C=CCc1cccc(/C=N/NC(=O)C(C)Nc2ccc(C)cc2)c1O (stereo not shown),8.9

row,SMILES,"hERG current change (%, negative = inhibition) at 10uM [%]"
1,COc1ccc(Cl)cc1NC(=O)COC(=O)CCCC1=NS(=O)(=O)c2ccccc2N1,21.4
2,CCOC(=O)c1c(NC(=O)COC(=O)C2CC2C)sc(C)c1C (stereo not shown),19.6
3,O=C(COC(=O)/C=C/c1cccc(Cl)c1)Nc1ccccc1-c1ccccc1,7.61
4,Cc1ccc2[nH]c(=O)c(CN(Cc3ccccc3)C(=S)NCCCN(C)C)cc2c1,-24.9
5,CC(C)(C)OC(=O)NCCCC1=CC2=CC(=O)C(C)(OC(=O)c3ccco3)C(=O)C2=CO1 (stereo not shown),5.99
6,Cc1ccc(C)c(COC(=O)CCN=C2NS(=O)(=O)c3ccccc32)c1,-10.4
7,Cc1ccc(-c2nc3cnccn3c2Nc2c(C)cccc2C)o1,-20.4
8,CCN(CC(=O)NCc1ccc(F)cc1)C(=O)CN1CCN(c2ccc(OC)cc2)CC1.O=C(O)C(=O)O,-61.9
9,Cc1cc(C)n(/C(=C/N(C)C)C(=O)c2ccccc2)n1,15.6
10,O=C1/C(=C\c2cccnc2)CCc2ccccc21,-7.61
11,O=C(NCCCNCCCNC(=O)c1ccccn1)c1ccccn1,-12.7
12,Cc1cc(/C=C(\C#N)C(N)=O)c(C)n1-c1ccc(N2CCOCC2)c([N+](=O)[O-])c1,-5.05
13,COc1ccc(CCn2nnnc2C(c2ccccc2)N2CCN(C)CC2)cc1OC.Cl (stereo not shown),7.37
14,COCCSc1nnc(NC(=O)c2ccco2)s1,26.8
15,Cc1ccc(S(=O)(=O)N(C)c2ccc(OCC(=O)OCC(=O)N(CC#N)c3ccccc3)cc2)cc1,-8.59
16,CCCCN1CCC(COC(=O)c2cc(Cl)c(N)c3c2OCCO3)CC1.Cl,-59.4
17,CCn1c(SCC(=O)c2ccccc2)nc2c(c1=O)SC(C)C2 (stereo not shown),1.28
18,COc1ccc(C2Nc3ccccc3NC3=C2C(=O)CC(C)(C)C3)cc1O (stereo not shown),19
19,CCOC(=O)c1c(NC(=O)CSc2nc3ccccc3s2)sc(C)c1C,10.6
20,O=C(NC(=S)Nc1ccc(F)c(Cl)c1)C1CC1,-15
21,O=C(NC(c1ccccc1)c1ccccc1)c1ccc(Br)o1,1.04
